Laboratory results taken from PubChem BioAssay AID445 (National Center for Advancing Translational Sciences (NCATS), 2006).
Screen size: about 110,000 compounds; about 40 (0.04%) were called active. Inconclusive results, whose numbers are uncertain, are shown with a selection of clear calls. Calls follow the shape of the dose curve; as a rule, active = well fitted curve in the direction sought with a large enough effect in the signal ratio (not every such curve was filed as active); inconclusive = small, poorly fitted or top-dose-only effect, or a change in a side signal; inactive = flat fitted curve, though single readings scatter; the % refers to the signal ratio. Potencies of inconclusive entries are doubtful fits and often do not repeat.

Assay: IkB Signaling;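 as to IkBa stabilization activation: 0% = basal untreated cells and 100% = reference inhibitor full response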
Conditions: ABC-DLBCL IkBa-CBG/CBR dual luciferase ratio (green luciferase fused to IkBa over red control in OCI-Ly3 lymphoma cells), 4 h; IkBa stabilization activation: at 57.1 µM (top of the series), scaled: untreated 0%, proteasome inhibitor 100% unless noted
Method in brief: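 In this assay, an IκBα–CBG68 fusion accumulates when IKK-driven degradation is blocked; native CBR normalizes for cell number. OCI-Ly3 cells were treated 4 h with compound and doxycycline, then green and red light read after Chroma-Glo addition.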
Potency is read from the fitted curve at half-maximal effect.

SMILES | IkBa stabilization activation | Potency
CCS(=O)(=O)N1CCc2cc(C(=O)NCc3ccc(OC)cc3)ccc21 | inconclusive: 10.8% [signal inhibitor] | 
N#Cc1cc(-c2ccccc2)oc1NC(=O)c1ccco1 | inactive | 
COC(=O)c1[nH]c2ccc(C)cc2c1NC(=O)CN1CCCc2ccccc21 | inconclusive: 6.52% [signal inhibitor] | 
COc1ccccc1CCn1c(=O)c(-c2ccc(F)c(F)c2)nc2cncnc21 | inactive: -0.278% [at 11.4 µM, scaled: untreated 0%, proteasome inhibitor 100%] | 
CCOC(=O)c1ccc(NC(=O)CCCc2nc(-c3ccccc3Cl)no2)cc1 | inconclusive: -1.38% [signal inhibitor] | 
[O-]/[N+](=C/c1cccnc1)c1ccc(Br)cc1 | inconclusive: 11.9% [signal inhibitor] | 
CCOC(=O)CSc1nc2ccc(NC(=O)c3ccc(C)cc3)cc2s1 | inconclusive: 5.4% [signal inhibitor] | 
CCc1ccc(CNC(=O)Cc2ccc(NC(=O)N3CCSc4ncccc43)cc2)cc1 | inconclusive: -2.47% [signal inhibitor] | 
CCn1c2ccccc2c2cc(CN3CCN(C(=O)c4ccco4)CC3)ccc21 | inconclusive: -1.68% [signal inhibitor] | 
O=C(O)CCn1nnc(-c2cccs2)n1 | inactive | 
CN(C)CCCSc1ccccc1NC(=O)/C=C\c1ccccc1 |  | inconclusive: 39.8 µM [signal inhibitor, single point]
C[C@@H]1CC2(OC(O)[C@]3(C)O[C@H]23)O[C@H]2C[C@@]3(C)[C@@H]4CC[C@H]5C(C)(C)C(O[C@@H]6OC[C@@H](O)[C@H](O)[C@H]6O)CC[C@@]56C[C@@]46CC[C@]3(C)[C@@H]12 (some centres not stated) | inactive | 
COc1ccccc1-c1nc(NCc2ccccc2)c2ccccc2n1 | inactive: 4.24% [at 11.4 µM, scaled: untreated 0%, proteasome inhibitor 100%] | 
Cc1cc(C)cc(C(=O)Nc2ccc(-c3nc4ncccc4o3)cc2)c1 | inconclusive: 1.31% [signal inhibitor] | 
Cc1c2cnn(CC(=O)N3CCN(c4ccc(F)cc4)CC3)c(=O)c2c(C)n1Cc1ccc(F)cc1 | inconclusive: 2.54% [signal inhibitor] | 
Cc1cc(N2CCN(S(=O)(=O)Cc3ccccc3)CC2)n2ncnc2n1 | inactive | 
COc1c(C)cc(S(=O)(=O)NCCc2c(C)[nH]c3ccccc23)c(C)c1C | inconclusive: 4.67% [signal inhibitor] | 
COc1ccccc1CNC(=O)CCn1c(=O)c2ccccc2n(CC(=O)Nc2cccc(Cl)c2)c1=O |  | inconclusive: 25.1 µM [rising, partial curve]
Cc1c(NC(=O)c2cc(-c3ccc(Cl)c(Cl)c3)on2)c(=O)n(-c2ccccc2)n1C | inconclusive: 17% [signal inhibitor] | 
Cc1nc2ccccc2n1-c1nc(-c2ccco2)cc(C(F)(F)F)n1 | inactive | 
CCc1cccc(-n2c(C)nc3c(cnn3-c3ccc(Cl)cc3)c2=O)c1 | inconclusive: -0.268% [signal inhibitor] | 

SMILES | IkBa stabilization activation | Potency
Cc1cn2c(=O)cc(COc3cccc(NC(=O)c4ccccc4C)c3)nc2s1 |  | inconclusive: 20 µM [signal inhibitor, partial curve]
CCN(CC)c1ccc(NC(=O)c2ccco2)c(C)c1 | inactive | 
COc1ccc(OC)c(NC(=O)Cc2coc3ccc(C(C)C)cc23)c1 | inconclusive: -1.4% [signal inhibitor] | 
O=C(O)c1cccc(COc2ccccc2Cl)c1 |  | inconclusive: 3.16 µM [signal inhibitor, partial curve]
CCOC(=O)c1c(-c2ccccc2)oc2ccc(N(C(C)=O)S(=O)(=O)c3cc(C)ccc3C)cc12 | inconclusive: 1.38% [signal inhibitor] | 
O=C(c1cc(-c2ccc(Cl)cc2Cl)on1)N1CCOCC1 | inactive | 
Cc1ccc(O)c(C(CC(=O)NCC2(c3ccccc3)CCCC2)c2ccccc2)c1 (configuration not stated) | inconclusive: -6.48% [signal inhibitor] | 
CCc1c(C)nc(SCC(=O)N2CCN(c3ccccc3OC)CC2)[nH]c1=O | inconclusive: 7.47% [signal inhibitor] | 
COc1ccc(-c2cc(C(F)F)n3ncc(C(=O)N4CCN(C(=O)c5ccco5)CC4)c3n2)cc1 | inactive | 
COc1ccc(OC)c(NC(=O)c2cc3c(=O)oc4ccccc4c3s2)c1 | inconclusive: 9.96% [signal inhibitor] | 
Cc1ccc(C)c(NC(=O)c2ccc3c(O)c(S(=O)(=O)c4ccc(Cl)cc4)c(=O)[nH]c3c2)c1 | inconclusive: 0.642% [signal inhibitor] | 
O=C(NCC(c1cccnc1)N1CCN(c2ccccc2F)CC1)c1cccc(Cl)c1 (configuration not stated) | inconclusive: 2.17% [signal inhibitor] | 
Cn1cc(Cl)c(-c2nc3ccccc3[nH]2)n1 | inconclusive: 9.45% [signal inhibitor] | 
CCOc1ccc(-c2nonc2NC(=O)c2oc3cc(C)ccc3c2C)cc1 | inconclusive: 10.8% [signal inhibitor] | 
COc1ccc(S(=O)(=O)N2CCN(c3ccccc3F)CC2)cc1-c1noc(C)n1 | inactive | 
Fc1ccc(-c2noc3ncnc(N4CCN(c5ccccc5)CC4)c23)cc1 | inconclusive: -0.297% [signal inhibitor] | 
O=C(NCc1ccc(F)cc1)c1ccc2c(Cl)c3c(nc2c1)CCCC3 | inconclusive: 3.36% [signal inhibitor] | 
CCOc1ccc(NC(=O)Cn2c(=O)n(-c3cccc(Cl)c3)c(=O)c3c2c2cc(C)ccc2n3C)cc1 | inconclusive: -1.76% [signal inhibitor] | 
COc1ccc(S(=O)(=O)Nc2cccc(-c3ccc(N4CCC(C)CC4)nn3)c2)c(OC)c1 | inconclusive: 18.4% [signal inhibitor] | 
CCCCn1c(NCCC)nc2c1c(=O)[nH]c(=O)n2C | inactive | 
COc1cc(NC(=O)c2ccc3oc(=O)c(S(=O)(=O)c4ccccc4)cc3c2)cc(OC)c1 |  | inconclusive: 15.8 µM [rising, single point]
